Results are given in words; binding and its absence hold for the method and conditions named. For some assays here: In cells and extracts the contact can be indirect. Some binding calls cover weakened binding; strength is not graded here. Sequences can lack the tags named with a protein.
B1: c-myc-tagged full-length hOAS1 p42, in vitro translated (protein, UniProt P00973-2 1-364)
chain: MMDLRNTPAKSLDKFIEDYLLPDTCFRMQINHAIDIICGFLKERCFRGSSYPVCVSKVVKGGSSGKGTTLRGRSDADLVVFLSPLTTFQDQLNRRGEFIQEIRRQLEACQRERAFSVKFEVQAPRWGNPRALSFVLSSLQLGEGVEFDVLPAFDALGQLTGGYKPNPQIYVKLIEECTDLQKEGEFSTCFTELQRDFLKQRPTKLKSLIRLVKHWYQNCKKKLGKLPPQYALELLTVYAWERGSMKTHFNTAQGFRTVLELVINYQQLCIYWTKYYDFKNPIIEKYLRRQLTKPRPVILDPADPTGNLGGGDPKGWRQLAQEAEAWLNYPCFKNWDGSPVSSWILLVRPPASSLPFIPAPLHEA
modifications: [^35S]-methionine (radiolabel)
B2: c-myc-tagged full-length hOAS1 p44, in vitro translated (protein, UniProt P00973-4 1-360)
chain: MMDLRNTPAKSLDKFIEDYLLPDTCFRMQINHAIDIICGFLKERCFRGSSYPVCVSKVVKGGSSGKGTTLRGRSDADLVVFLSPLTTFQDQLNRRGEFIQEIRRQLEACQRERAFSVKFEVQAPRWGNPRALSFVLSSLQLGEGVEFDVLPAFDALGQLTGGYKPNPQIYVKLIEECTDLQKEGEFSTCFTELQRDFLKQRPTKLKSLIRLVKHWYQNCKKKLGKLPPQYALELLTVYAWERGSMKTHFNTAQGFRTVLELVINYQQLCIYWTKYYDFKNPIIEKYLRRQLTKPRPVILDPADPTGNLGGGDPKGWRQLAQEAEAWLNYPCFKNWDGSPVSSWILLVNLTLVGRRNYTNN
modifications: [^35S]-methionine (radiolabel)

The chains behind the UniProt entries cited, without tags or fusion partners. A line that says so, or that is headed by a name, gives the form on record, which may keep a tag or linker. Residues count along the entry.
Fibrillin 1 (FBN1) 225 aa prey peptide (aa 2647-2871), GAL4-AD fusion (P35555, residues 2647-2871): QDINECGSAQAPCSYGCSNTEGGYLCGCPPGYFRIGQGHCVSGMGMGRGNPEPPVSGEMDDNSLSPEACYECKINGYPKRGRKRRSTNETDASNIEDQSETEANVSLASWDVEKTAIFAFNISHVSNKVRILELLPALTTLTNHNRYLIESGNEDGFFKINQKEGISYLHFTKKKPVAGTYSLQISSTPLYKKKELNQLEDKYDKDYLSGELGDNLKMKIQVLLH
HA-tagged FBN1 (188 aa) peptide, in vitro translated (P35555, residues 2684-2871): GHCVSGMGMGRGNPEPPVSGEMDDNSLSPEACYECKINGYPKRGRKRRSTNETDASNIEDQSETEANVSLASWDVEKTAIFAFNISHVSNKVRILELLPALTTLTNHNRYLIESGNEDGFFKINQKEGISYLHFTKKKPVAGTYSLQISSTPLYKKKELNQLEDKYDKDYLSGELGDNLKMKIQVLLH

Assays:
[1] = biological target: T1, c-myc-tagged full-length hOAS1 p42, in vitro translated (human) (UniProt P00973); assay: co-IP; c-myc-tagged bait and HA-tagged prey peptide translated in vitro (wheat germ extract, [35S]-methionine), incubated together 1 h at room temperature, precipitated overnight at 4 °C with anti-c-myc or anti-HA agarose beads; non-specific IgG beads as control; SDS-PAGE and autoradiography
T1 sequence (chain, [^35S]-methionine (radiolabel)): B1 chain

[2] = biological target: T2, full length hOAS1-p42 isoform fused to the GAL4-BD domain (pGBKT7) (human) (UniProt P00973); assay: two-hybrid; Matchmaker Gold library screen: GAL4-BD bait in Y2HGold mated at 30 °C for 24 h with Y187 holding a universal human cDNA library fused to GAL4-AD; selection on DDO, then TDO/A and QDO/A; inserts of colonies from QDO/A plates sequenced; about 2 x 10^6 clones screened
T2 sequence: B1 chain

[3] = biological target: HA-tagged FBN1 (188 aa) peptide, in vitro translated (human) (UniProt P35555); assay: co-IP; c-myc-tagged bait and HA-tagged prey peptide translated in vitro (wheat germ extract, [35S]-methionine), incubated together 1 h at room temperature, precipitated overnight at 4 °C with anti-c-myc or anti-HA agarose beads; non-specific IgG beads as control; SDS-PAGE and autoradiography

Molecule | binding [2] | binding [3] | further results
HA-tagged FBN1 (188 aa) peptide, in vitro translated (from UniProt P35555 2684-2871) (domain or fragment) |  |  | binding [1]: binds
Fibrillin 1 (FBN1) 188 aa prey peptide (aa 2684-2871), GAL4-AD fusion (from UniProt P35555 2684-2871) (domain or fragment) | binds |  | 
Fibrillin 1 (FBN1) 225 aa prey peptide (aa 2647-2871), GAL4-AD fusion (from UniProt P35555 2647-2871) (domain or fragment) | binds |  | 
B1 |  | binds | 
B2 |  | no binding | 
